Out of some 50,000 compounds screened, about 800 (1.6%) showed an effect of 50% or more. The list shows a part of the results.
What follows are compounds tested against Bcl-2-like protein 10 (Homo sapiens) (UniProt Q9HD36) (assay: Phenotype converters, Bcl-B/TR3 peptide binding displacement, primary biochemical FP (AID 1240;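 also: 0% = Bcl-B with tracer peptide and DMSO and 100% = tracer peptide lacking Bcl-B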)). Settings: GST-Bcl-B / FITC-TR3 peptide fluorescence polarization; stronger effect = higher value; compound at 3.75 mg/L.
Sequence of UniProt Q9HD36 (Q9HD36 whole entry, looked up): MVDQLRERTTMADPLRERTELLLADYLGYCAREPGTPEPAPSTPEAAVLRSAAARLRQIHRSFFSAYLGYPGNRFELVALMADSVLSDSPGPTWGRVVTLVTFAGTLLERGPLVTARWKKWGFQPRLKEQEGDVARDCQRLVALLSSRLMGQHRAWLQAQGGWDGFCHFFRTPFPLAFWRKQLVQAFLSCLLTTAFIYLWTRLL
`CC12CC3CC(C)(C1)CC(C(=O)Nc1ccc([N+](=O)[O-])cc1)(C3)C2` gave a displacement of 6.6%.
`CCN1C(=O)/C(=C\c2cccc(OCc3cccc4ccccc34)c2)SC1=S` gave a displacement of 4.6%.
In the case of `NC(=O)c1cc(NS(=O)(=O)c2ccc(F)cc2)ccc1Cl`, the displacement is reported as -1.2%.
In the case of `COc1ccccc1/C=N/Nc1cc(-c2ccccc2)nc(C)n1`, the displacement is reported as -9.7%.
Work on `C=CCSc1nc2ccccc2n1C(=O)c1ccc2c(c1)OCO2` yielded a displacement of -11%.
In the case of `O=C1C(=O)N(CCO)C(c2cccc(F)c2)/C1=C(\O)c1ccccc1` (configuration not stated), the displacement is reported as 1.7%.
Work on `O=C1C2C(C(=O)N1/N=C/C=C/c1ccccc1)C1C=CC2C12CC2` (configuration not stated) yielded a displacement of 8.4%.
With `O=C(Nc1ccc(F)cc1)c1ccc(Br)c(S(=O)(=O)N2CCOCC2)c1` the displacement was -14.3%.
`CC1(C)SCC2C(=O)N3C(CSC3(C)C)C(=O)N21` (configuration not stated) gave a displacement of -0.3%.
With `CCc1nnc(NC(=O)C2CCCC2)s1` the displacement was -7.8%.
Compound `Cc1ccc(NC(=O)COc2ccc3ccccc3c2)cc1` has a displacement of 1.7%.
Work on `O=C(Nc1ccccn1)c1cc2cc(Br)ccc2oc1=O` yielded a displacement of 13.6%.
In the case of `Cc1cccc(-n2c(C)cc(C=O)c2C)c1`, the displacement is reported as 11.9%.
For `Cc1cc(C(F)(F)F)c(C#N)c(SCC(N)=O)n1`, the displacement was -2.9%.
In the case of `Cc1ccc(-c2nnc(NC(=O)Nc3ccc(Cl)cc3)s2)cc1`, the displacement is reported as 0.6%.
`COC(=O)c1ccc(/C=C2\SC(=S)N(NC(=O)c3ccccc3C)C2=O)cc1` gave a displacement of -5.8%.
Work on `COc1cc(C(=O)N2CCN(C3CC4CCC3C4)CC2)cc(OC)c1OC` (configuration not stated) yielded a displacement of 8.1%.
For `COc1cc(/C=N/Nc2nnc(C)c(=O)[nH]2)ccc1O`, the displacement was 6.5%.
`O=S(=O)(c1ccc2c(c1)OCCO2)N1CCCCCC1` gave a displacement of 6.3%.
With `COc1cccc(/C=C2/C(=O)NN(c3ccc(C)cc3)C2=O)c1O` the displacement was 21.3%.
For `COc1ccc(NC(=O)c2ccc(Br)o2)cc1Cl`, the displacement was 17.1%.
`CCn1c2ccccc2c2cc(NC(=O)CC(C)=O)ccc21` gave a displacement of -0.3%.
With `O=C(O)CCN1C(=O)c2ccc(S(=O)(=O)c3ccc(C(=O)O)cc3)cc2C1=O` the displacement was 5%.
In the case of `CCN=C(NCC)SC1CC(=O)N(C)C1=O` (configuration not stated), the displacement is reported as -4.2%.
`O=S(=O)(c1ccc2c(c1)Cc1cc(S(=O)(=O)N(CCO)CCO)ccc1-2)N(CCO)CCO` gave a displacement of 9.2%.
Compound `O=c1cc(C(F)F)oc2c1ccc1ccccc12` has a displacement of -5.4%.
With `c1csc(-c2nc3sc(-c4cccs4)nc3s2)c1` the displacement was 3%.
For `COC(=O)CN(c1ccc(Cl)cc1Cl)S(=O)(=O)c1ccccc1`, the displacement was 3.2%.
`COc1ccc(C(=O)SC2=NCCS2)cc1` showed a displacement of -6.9%.
Work on `CCCCOc1ccc2nsnc2c1Cl` yielded a displacement of -3.1%.
`CCc1ccc(/C=C2\SC(=S)N(CC(=O)N3CCOCC3)C2=O)cc1` was tested, and the displacement was -7.1%.
`CCN(CC)C(=O)c1c(F)cccc1F` was tested, and the displacement was -3.4%.
For `CC(=O)NC1=NC(=O)/C(=C\c2sccc2C)S1`, the displacement was 98.2%.
In the case of `CC(C)CC(=O)NC(NC(=S)Nc1sc2c(c1C#N)CCCC2)C(Cl)(Cl)Cl` (configuration not stated), the displacement is reported as 5.5%.
Compound `CC(C)(C)c1cc(N2C(=O)C(=O)/C(=C(\O)c3ccccc3)C2c2ccc(Cl)cc2)no1` (configuration not stated) has a displacement of -13.1%.
In the case of `COc1cc(/C=N/Nc2nn[nH]n2)cc2c1OCO2`, the displacement is reported as 12.7%.
`Cc1cc(/C=C2\SC(=O)NC2=O)c(C)n1C1CCCCC1` showed a displacement of 8.2%.
With `CC(C)(C)c1ccc(C(=O)NNC(=O)c2ccc([N+](=O)[O-])cc2Cl)cc1` the displacement was -12%.
Compound `Cc1cc(-n2cccn2)nc(-c2ccc(Br)cc2)n1` has a displacement of -7.1%.
Compound `CCCCOc1ccc(-c2cnc(S(C)(=O)=O)nc2)cc1` has a displacement of 2.2%.
Work on `O=C(N/C(=C\c1cccnc1)C(=O)N1CCOCC1)c1cccc(Br)c1` yielded a displacement of -5.9%.
`O=C(c1cccc(Cl)c1)N1CCN(c2ccc([N+](=O)[O-])cc2Cl)CC1` was tested, and the displacement was -1%.
With `Nc1sc2c(c1C(=O)Nc1ccc(Cl)cc1)CCCC2` the displacement was 9.6%.
Work on `O=C(NC(=S)N1CCCCCC1)c1ccc(Br)cc1` yielded a displacement of 3.1%.
For `Cc1cc(C)cc(NC(=O)Cn2c(C)c(C=O)c3ccccc32)c1`, the displacement was -40.5%.
With `CNC(=O)c1c(NC(=O)c2cccs2)sc2c1CCCC2` the displacement was 7.3%.
`CCCCCCCCc1nnc(NC(=O)CC)s1` gave a displacement of -2.8%.
Compound `Cc1cc(C(F)(F)F)nn1CC(=O)Nc1ccccc1C(F)(F)F` has a displacement of 0.2%.
`O=C(c1cc2ccccc2oc1=O)N1CCN(c2ccc([N+](=O)[O-])cc2)CC1` showed a displacement of -3.9%.
With `CCOc1ccc(N(CC(=O)NCCc2ccc(OC)c(OC)c2)S(=O)(=O)c2ccc(Br)cc2)cc1` the displacement was 5.3%.
`Clc1ccc(-c2nnc(-c3ccc4c(c3)OCO4)o2)c(Cl)c1` gave a displacement of 12.6%.
With `O=C(Nc1nc2ccc3ccccc3c2s1)c1cccc(Br)c1` the displacement was 4.3%.
Work on `O=C(NCCC1=CCCCC1)c1cc2ccccc2oc1=O` yielded a displacement of -4.9%.
`N#Cc1c(N)c(C(=O)c2ccccc2)n2c1CCCC2` was tested, and the displacement was 12.7%.
`CCCC(=O)Nc1cccc(-c2nc3cc(C)ccc3o2)c1` was tested, and the displacement was -8%.
`Cc1cc([N+](=O)[O-])ccc1-c1cc2ccccc2oc1=O` was tested, and the displacement was 9.6%.
With `O=C(COc1ccccc1)Nc1ccccc1C(=O)Nc1ccc(C(=O)O)cc1` the displacement was 12.9%.
In the case of `COC(=O)c1c(C)oc2ccc(NS(=O)(=O)c3ccc(F)cc3)cc12`, the displacement is reported as 11.6%.
Compound `COc1ccccc1CNC(=O)C1CC(=O)N(c2ccc(F)cc2)C1` (configuration not stated) has a displacement of 7.3%.
For `CCOc1ccc(N2C(=O)NC(=O)/C(=C\c3ccc(N(CC)CC)cc3OC)C2=O)cc1`, the displacement was 55.1%.
`O=C1C(=O)N(Cc2cccnc2)C(c2ccccc2Cl)/C1=C(\O)c1ccccc1` (configuration not stated) showed a displacement of -14%.
`CC(C(=O)NN)C1=NC(C)(C)Cc2ccccc21` (configuration not stated) gave a displacement of -17.7%.
`COc1cc(NC(=O)c2cc([N+](=O)[O-])ccc2N2CCN(C)CC2)c2ncccc2c1` was tested, and the displacement was 5.1%.
`Cc1cc(C)cc(N(CC(=O)NCc2ccco2)S(=O)(=O)c2ccccc2)c1` gave a displacement of 1.4%.
In the case of `O=C(c1cccs1)N1CCN(Cc2ccc(Br)cc2)CC1`, the displacement is reported as -11.8%.
With `O=c1c(-c2cccs2)[n+]([O-])c2ccccc2n1O` the displacement was 69.4%.
Compound `COc1cc(/C=C/c2nc3ccccc3c(=O)[nH]2)ccc1O` has a displacement of 1.2%.
With `C=CCn1c(SCC(=O)NCCCN2CCOCC2)nc2sc(C)c(C)c2c1=O` the displacement was -0.6%.
`COc1cccc(CN2CCN(Cc3cc(OC)ccc3OC)CC2)c1` showed a displacement of -9%.
`N#CC1=C(N)Oc2n[nH]c(-c3ccccc3)c2C1C1CCCCC1` (configuration not stated) showed a displacement of -7.2%.
`CC(=O)C1=C(Nc2ccccc2)CC(C)(O)C(C(C)=O)C1c1ccc(F)cc1` (configuration not stated) gave a displacement of 0.6%.
Compound `C/C(=N\N=C1\NC(=O)C(CC(=O)Nc2ccccc2C(F)(F)F)S1)c1ccc([N+](=O)[O-])cc1` (configuration not stated) has a displacement of 4.2%.
Work on `CC(NC(=O)c1ccccc1)C(=O)OCC(=O)Nc1ccc(S(N)(=O)=O)cc1` (configuration not stated) yielded a displacement of -4.7%.
`Cc1ccc(C(C)C)c(OCC(=O)Nc2cc(-c3nc4ccccc4o3)ccc2C)c1` gave a displacement of -1.3%.
With `COc1ccc(NC(=O)CN(CCc2ccccc2)S(=O)(=O)c2ccccc2)c(OC)c1` the displacement was 2.5%.
`CC(C)OC(=O)C1C(=O)CC(C)(O)C(C(=O)OC(C)C)C1c1cccc(F)c1` (configuration not stated) gave a displacement of -0.6%.
Work on `CCCC(=O)N1CCN(Cc2ccccc2)CC1` yielded a displacement of -2.6%.
With `O=C(COc1ccccc1Cl)Nc1ccc2oc(-c3ccncc3)nc2c1` the displacement was 136%.
`CCOC(=O)C(=CNc1ccccc1C(C)C)C(=O)OCC` gave a displacement of -7.2%.
`Cn1c(COc2cccc3ccccc23)nc2ccccc21` showed a displacement of -9.7%.
In the case of `CCOC(=O)c1sc(NC(=O)c2cncc(Br)c2)nc1C`, the displacement is reported as 24.1%.
For `COc1cc(C(=O)Nc2ncc(Cc3cccc(Cl)c3)s2)cc(OC)c1OC`, the displacement was 10.7%.
In the case of `Cc1ccc(OCc2nnc(NC(=O)C3CCCCC3)s2)cc1`, the displacement is reported as 8.7%.
Compound `O=C(CCN1C(=O)/C(=C/c2ccccc2)SC1=S)NNC(=O)c1ccccc1Br` has a displacement of 1.4%.
`Cc1cc(CN2CCOCC2)c(O)c(C)n1` was tested, and the displacement was 7.9%.
`Cc1oc2ccccc2c1/C=N/n1cnc2sc3c(c2c1=O)CCCC3` showed a displacement of 9.1%.
Compound `CCOc1ccc2nc(SCC(=O)C(C)(C)C)[nH]c2c1` has a displacement of 0.7%.
In the case of `O=C1CC(c2cccc([N+](=O)[O-])c2)Sc2nc3ccccc3n21` (configuration not stated), the displacement is reported as 10.8%.
In the case of `O=C(Cn1c(=O)n(CC(=O)NCc2ccccc2)c2ccccc21)NCc1ccccc1`, the displacement is reported as 12.7%.
In the case of `CN(C)c1ccc(/C=C2\NC(=O)c3ccccc3C2=O)cc1`, the displacement is reported as 5.2%.
`Cc1cccc(-c2noc(COc3ccc(Cl)cc3)n2)c1` was tested, and the displacement was 6%.
With `COc1cc(C(=O)Nc2ccccc2)c2ccccc2n1` the displacement was -0.3%.
In the case of `CCc1ccc(NC2=C(Cl)C(=O)N(c3ccccc3Cl)C2=O)cc1`, the displacement is reported as -1.9%.
For `CCOc1cc(C(=O)NCCN2CCOCC2)cc(OCC)c1OCC`, the displacement was 1.7%.
For `CCc1ccc(-n2c(C)cc(/C=N/NC(N)=O)c2C)cc1`, the displacement was 6.6%.
`Cc1ccnc(NS(=O)(=O)c2ccc(N3C(=O)c4c(Cl)c(Cl)c(Cl)c(Cl)c4C3=O)cc2)n1` was tested, and the displacement was 16.2%.
`CC(C)OC(=O)c1c(-c2ccc(Br)cc2)csc1NC(=O)CCC(=O)O` was tested, and the displacement was 6.9%.
Work on `CCCCCCCc1ccc(C(=O)Nc2nccs2)cc1` yielded a displacement of -7.1%.
For `O=P(O)(O)CP(=O)(c1ccccc1)c1ccccc1`, the displacement was 11.6%.
`O=C(/C=C/c1ccccc1)Nc1nc2ccc(Cl)cc2s1` was tested, and the displacement was -9.2%.
`Cc1ccc(Cl)cc1N(Cc1ccc(C(=O)N2CCN(c3ccccc3)CC2)cc1)S(=O)(=O)c1ccccc1` showed a displacement of -15.1%.
`Brc1ccc(-c2cc(-c3ccccc3)nc(N/N=C/c3cccnc3)n2)cc1` was tested, and the displacement was -13.9%.
For `COc1cc(N(C)C)c([N+](=O)[O-])cc1C(=O)N1CCCC(O)C1` (configuration not stated), the displacement was 20.2%.
Work on `O=C(Nc1cc(Cl)ccc1C(=O)O)c1ccc(Br)cc1` yielded a displacement of -0.2%.
In the case of `O=C(NCCOCc1ccccc1)C(c1ccccc1)c1ccccc1`, the displacement is reported as -2.7%.
Work on `CCOC(=O)CCc1nc2ccc(O)cc2[nH]1` yielded a displacement of 3.4%.
`O=C1C2ON(c3ccc(Cl)cc3)C(c3cc(Br)ccc3O)C2C(=O)N1c1ccccc1` (configuration not stated) showed a displacement of 9.4%.
`CCOC(=O)c1ccc(NC(=O)CCCOc2ccc(Cl)cc2Cl)cc1` showed a displacement of -12.3%.
Compound `O=C1/C(=C\N2CCOCC2)c2ccccc2C(=O)N1c1ccccc1` has a displacement of 1.6%.
`Cc1ccc([N+](=O)[O-])cc1-c1ccc(/C=C(\C#N)c2nc3ccccc3[nH]2)o1` was tested, and the displacement was -0.7%.
`COc1cccc(-c2cc(C(=O)Nc3ncccn3)c3ccccc3n2)c1` showed a displacement of 5.4%.
In the case of `Cc1cc(/C=N/N2C(=O)c3ccccc3C2=O)c(C)n1C`, the displacement is reported as -9.7%.
